# From PMC4336329 (PLoS ONE, 2015)
# The campaign covered roughly 310,000 compounds. About 14,000 (4.5%) showed an effect of 50% or more. The effect is printed as a negative number. The list shows a part of the results.
# Molecular target: human ether-à-go-go-related gene (hERG) potassium channel (human, UniProt Q12809)
# Assay: primary screen, population patch clamp on CHO cells stably expressing hERG
# 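Further: peak tail current of the secondary pulse compared with the same well before compound.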
# Chain of human ether-à-go-go-related gene (hERG) potassium channel (Q12809 whole entry, looked up): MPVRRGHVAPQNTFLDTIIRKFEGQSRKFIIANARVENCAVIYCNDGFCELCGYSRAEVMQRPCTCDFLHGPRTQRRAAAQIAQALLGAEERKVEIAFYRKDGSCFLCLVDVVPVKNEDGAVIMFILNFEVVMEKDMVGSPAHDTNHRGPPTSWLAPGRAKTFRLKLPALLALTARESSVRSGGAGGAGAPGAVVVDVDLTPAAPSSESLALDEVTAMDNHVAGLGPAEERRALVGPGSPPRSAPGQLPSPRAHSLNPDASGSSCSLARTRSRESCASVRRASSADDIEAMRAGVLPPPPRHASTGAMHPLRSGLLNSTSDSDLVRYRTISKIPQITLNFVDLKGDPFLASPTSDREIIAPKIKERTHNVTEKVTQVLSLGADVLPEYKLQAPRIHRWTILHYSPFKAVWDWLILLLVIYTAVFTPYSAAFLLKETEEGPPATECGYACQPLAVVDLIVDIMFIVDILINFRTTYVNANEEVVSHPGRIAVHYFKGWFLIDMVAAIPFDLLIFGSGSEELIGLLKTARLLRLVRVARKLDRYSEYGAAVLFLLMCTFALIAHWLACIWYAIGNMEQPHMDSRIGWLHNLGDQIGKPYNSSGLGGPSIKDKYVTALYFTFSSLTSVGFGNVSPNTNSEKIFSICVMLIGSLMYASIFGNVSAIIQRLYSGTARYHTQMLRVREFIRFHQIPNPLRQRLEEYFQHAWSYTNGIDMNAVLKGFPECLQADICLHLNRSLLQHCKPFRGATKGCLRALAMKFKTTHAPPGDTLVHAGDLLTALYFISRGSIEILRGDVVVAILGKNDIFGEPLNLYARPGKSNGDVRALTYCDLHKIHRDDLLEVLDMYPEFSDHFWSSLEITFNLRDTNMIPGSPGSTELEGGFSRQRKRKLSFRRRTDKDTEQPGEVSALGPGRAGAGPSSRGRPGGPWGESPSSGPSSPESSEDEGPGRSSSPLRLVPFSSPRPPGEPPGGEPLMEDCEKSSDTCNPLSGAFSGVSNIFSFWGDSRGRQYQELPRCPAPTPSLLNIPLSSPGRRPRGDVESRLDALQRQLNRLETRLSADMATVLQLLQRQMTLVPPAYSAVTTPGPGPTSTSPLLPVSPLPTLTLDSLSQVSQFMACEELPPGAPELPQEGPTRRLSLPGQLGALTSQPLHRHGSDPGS
row,Compound,"hERG current change (%, negative = inhibition) at 10uM [%]"
1,S=C(NCCC1=CCCCC1)Nc1ccccc1,11.1
2,Cc1cc(NC(=O)CSc2nnc(C(C)N(C)C)n2Cc2ccccc2)no1 (centres unmarked),10.8
3,Cc1ccc(OCC(O)CN2CCN(Cc3ccc4c(c3)OCO4)CC2)c(C)c1.Cl (centres unmarked),-57.1
4,COCCn1c(SCC(=O)NCc2ccc3c(c2)OCO3)nc2ccccc2c1=O,-42.4
5,CCN(CC)CCN(C(=O)c1ccc([N+](=O)[O-])cc1)c1nc2ccc(OC)cc2s1.Cl,-49.7
6,Cc1ccc(C(=O)O)cc1-c1ccc(/C=C2\SC(=O)N(CC(=O)Nc3ccccc3)C2=O)o1,3.74
7,COCCCNc1nc2nonc2nc1N1CCN2CCCC2C1 (centres unmarked),22.6
8,CCOCCn1c(N2CCN(c3ccccc3)CC2)nc2c1c(=O)n(C)c(=O)n2C,-24.5
9,CN(C)S(=O)(=O)c1cccc(NC(=O)CNC2CCCCC2)c1.O=C(O)C(=O)O,5.24
10,CN(CC(=O)Nc1ccc(Cl)c(C(F)(F)F)c1)C(=O)CCCc1nc2ccccc2c(=O)[nH]1,12.1
11,Cc1ccc2c(c1)N(CCC(=O)NC1CC1)C(=O)C(C)O2 (centres unmarked),1.3
12,Cc1ccc(NC(=O)CSc2nnc(N)s2)cc1S(=O)(=O)N1CCCCC1,-4.28
13,Cc1ccc(C(=O)NNC(=O)C2CCN(Cc3ccccc3)CC2)cc1,-5.71
14,NC(=S)Nc1cccc2[nH]ccc12,7.89
15,COc1ccc(/C=N/Nc2nc(C)nc(N)n2)cc1,-25.6
16,Cc1cccc(OCc2nnc(SCc3cc(=O)[nH]c4ccccc34)n2-c2ccccc2)c1,-21.1
17,CCC(CC)c1nnc(NC(=O)C2CC(=O)N(c3ccc4c(c3)OCCO4)C2)s1 (centres unmarked),-20.9
18,O=C(O)C1=C[C@H](C2CC2)C[C@H](OCCCCO)O1,2.71
19,COC(=O)/C(=C(/F)Sc1cc(C)c(O)c(C)c1)C(F)(F)F,0.738
20,C=C(C)COc1ccc(-c2n[nH]c(C)c2-c2ccc(OC)cc2)c(O)c1,4.85
21,CCOC(=O)CN1Cc2cccc(C(=O)O)c2C1=O,6.31
22,CCCCCCCCNC(=O)/C(C#N)=C/c1ccc2c(c1)OCCO2,15.2

row,Compound,"hERG current change (%, negative = inhibition) at 10uM [%]"
1,CCOc1c(OC)cccc1C1CC(=O)Nc2cc(OC)c(OC)cc21 (centres unmarked),1.37
2,NC(=O)C1CCCN(C(=O)Nc2cccc3ccccc23)C1 (centres unmarked),1.8
3,CC1=NN(Cc2ccccc2)C(=O)C1C(c1ccncc1)C(C#N)C#N (centres unmarked),-3.95
4,Cc1csc(Sc2ccc(C(=O)OCC(=O)Nc3ccc(OC(F)(F)F)cc3)cc2[N+](=O)[O-])n1,3.83
5,CCC(NC(=O)CCCc1ccccc1)c1ccccc1 (centres unmarked),-7.93
6,Cc1ccc(C2=NNC(C(O)C(O)C(O)C(C)O)S2)cc1 (centres unmarked),1.91
7,O=C(CCC(=O)c1ccccc1)Nc1cccnc1,-1.8
8,CCOc1ccc(S(=O)(=O)Nc2cc(Cl)ccc2O)cc1,3.04
9,CCOC(=O)C1(Cc2ccc(OC)cc2)CCN(C(=O)[C@@H]2CCCN2C(C)=O)CC1,7.14
10,Cl.Clc1ccc(-c2ccc(CNCc3ccccn3)o2)cc1,-52.4
11,O=C(NC(=S)Nc1cccc(NC(=O)c2ccccc2)c1)c1cccc([N+](=O)[O-])c1,12.3
12,CC(=O)c1cn(CCOc2cc(C)ccc2C)c2ccccc12,22.9
13,COc1ccc(C2OC(=O)CC2C(=O)NC2CCCC(C)C2C)cc1OC (centres unmarked),17.4
14,Cc1cc(C)c(NC(=O)CSc2nc3ncc(Cl)cc3[nH]2)c(C)c1,16.3
15,Cc1ccnc(NS(=O)(=O)Cc2ccccc2)c1,8.01
16,O=C(NC(=O)c1ccccc1)NC(=O)c1ccccc1,9.76
17,CCN1CCN(CCCNC(=O)C2CCN(c3nnc(-n4c(C)ccc4C)s3)CC2)CC1,1.05
18,Cc1sc(N/N=C/c2ccco2)nc1-c1ccccc1,-4.11
19,O=C(NCC1CCCO1)C(c1cccnc1)N(C(=O)Cc1cccs1)c1cccnc1 (centres unmarked),-8.38
20,CCOc1ccc(C(C)NC(=O)CN2C(=O)NC3(CCCCC3)C2=O)cc1OCC (centres unmarked),21.3
21,Cc1occc1C(=O)NNC1=CC(=O)CC(C)(C)C1,13.3
22,CC(=O)N1c2ccccc2Nc2ccccc21,9.66
